Data published in article PMC9513894.
Results are given in words; binding and its absence hold for the method and conditions named. In cells and extracts the contact can be indirect. Some binding calls cover weakened binding; strength is not graded here. Tags and fused reporters may be left off the sequences shown.

Chains of the proteins cited; added tags and fusions are not shown. Lines headed by an entry give the natural chain unless they say otherwise; changes in a name come on top. A line that says so, or that is headed by a name, gives the form on record, which may keep a tag or linker. Residues count along the entry.
UniProt Q14694: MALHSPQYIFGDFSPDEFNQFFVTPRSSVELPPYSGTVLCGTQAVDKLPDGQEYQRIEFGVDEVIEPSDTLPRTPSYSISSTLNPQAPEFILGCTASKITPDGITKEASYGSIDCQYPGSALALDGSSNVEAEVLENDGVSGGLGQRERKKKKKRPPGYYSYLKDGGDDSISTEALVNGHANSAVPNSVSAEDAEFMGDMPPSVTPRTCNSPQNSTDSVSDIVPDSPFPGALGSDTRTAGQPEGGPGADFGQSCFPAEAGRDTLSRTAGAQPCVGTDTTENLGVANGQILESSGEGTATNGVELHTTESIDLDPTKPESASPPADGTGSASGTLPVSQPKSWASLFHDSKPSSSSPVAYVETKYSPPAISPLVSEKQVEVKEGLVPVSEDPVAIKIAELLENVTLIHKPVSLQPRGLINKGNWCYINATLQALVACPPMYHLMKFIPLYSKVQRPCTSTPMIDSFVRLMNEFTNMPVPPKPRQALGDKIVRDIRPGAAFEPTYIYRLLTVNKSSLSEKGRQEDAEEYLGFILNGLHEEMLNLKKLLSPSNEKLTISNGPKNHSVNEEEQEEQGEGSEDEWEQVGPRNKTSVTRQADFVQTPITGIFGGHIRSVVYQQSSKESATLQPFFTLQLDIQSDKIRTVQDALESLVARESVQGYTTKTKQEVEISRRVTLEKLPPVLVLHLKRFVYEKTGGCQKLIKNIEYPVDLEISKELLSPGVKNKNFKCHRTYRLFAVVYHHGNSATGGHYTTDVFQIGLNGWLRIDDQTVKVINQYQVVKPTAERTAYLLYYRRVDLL
GST-tagged USP10 400–798: residues 400-798 of Q14694
UniProt P54578: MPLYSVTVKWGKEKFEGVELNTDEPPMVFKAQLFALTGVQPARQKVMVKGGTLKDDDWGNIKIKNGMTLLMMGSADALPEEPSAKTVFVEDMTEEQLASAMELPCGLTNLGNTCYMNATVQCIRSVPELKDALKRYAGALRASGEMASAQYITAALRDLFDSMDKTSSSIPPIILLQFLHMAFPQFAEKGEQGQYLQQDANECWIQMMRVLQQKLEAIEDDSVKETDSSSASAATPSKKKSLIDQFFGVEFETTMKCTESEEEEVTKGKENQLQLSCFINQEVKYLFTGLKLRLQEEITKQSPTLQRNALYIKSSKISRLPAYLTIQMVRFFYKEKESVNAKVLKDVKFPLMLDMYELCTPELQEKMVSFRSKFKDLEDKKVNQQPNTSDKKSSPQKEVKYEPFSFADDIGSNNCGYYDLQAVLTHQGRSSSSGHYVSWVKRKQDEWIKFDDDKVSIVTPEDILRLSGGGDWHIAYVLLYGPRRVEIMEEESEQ
UniProt P45974: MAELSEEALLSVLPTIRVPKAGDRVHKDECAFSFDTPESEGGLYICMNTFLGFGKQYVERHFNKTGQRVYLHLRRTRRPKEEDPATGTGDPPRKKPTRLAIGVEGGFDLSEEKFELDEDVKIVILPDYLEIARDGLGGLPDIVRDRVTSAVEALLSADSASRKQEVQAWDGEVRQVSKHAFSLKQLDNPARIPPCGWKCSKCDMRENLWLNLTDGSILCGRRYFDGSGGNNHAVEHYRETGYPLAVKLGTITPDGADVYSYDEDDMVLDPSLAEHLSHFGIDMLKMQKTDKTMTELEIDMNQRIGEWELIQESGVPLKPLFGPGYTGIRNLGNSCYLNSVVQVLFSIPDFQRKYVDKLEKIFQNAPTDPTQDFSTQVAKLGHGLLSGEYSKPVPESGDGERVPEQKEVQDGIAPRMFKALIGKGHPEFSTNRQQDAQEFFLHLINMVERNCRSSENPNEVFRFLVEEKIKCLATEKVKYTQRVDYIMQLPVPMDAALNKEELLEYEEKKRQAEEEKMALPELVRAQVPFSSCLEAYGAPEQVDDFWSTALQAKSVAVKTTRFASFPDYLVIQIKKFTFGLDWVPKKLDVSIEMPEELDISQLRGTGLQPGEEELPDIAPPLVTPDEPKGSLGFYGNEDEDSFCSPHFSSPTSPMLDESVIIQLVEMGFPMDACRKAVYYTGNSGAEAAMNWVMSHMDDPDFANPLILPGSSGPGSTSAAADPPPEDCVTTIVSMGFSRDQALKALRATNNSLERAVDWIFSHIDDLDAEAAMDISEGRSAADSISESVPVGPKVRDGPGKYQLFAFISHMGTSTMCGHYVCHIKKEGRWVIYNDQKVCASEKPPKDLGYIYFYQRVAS

What was measured:
GST-tagged USP10 400–798 = GST-tagged USP10 400–798 (UniProt Q14694); assay: co-IP; GST-tagged USP10 constructs and HA-HDAC7 co-transfected in HEK-293T cells; pull down with anti-HA or anti-GST
[1] = biological target: GST-tagged full-length USP10 (UniProt Q14694); assay: as above
Flag-USP13 = biological target: T1, Flag-USP13 (UniProt Q92995); assay: co-IP; Flag-tagged USPs and HA-HDAC7 transfected into HEK-293T cells; anti-Flag beads (4 °C, 4 h; washed 4 times with NETN buffer); HA-HDAC7 detected by immunoblot
T1 sequence: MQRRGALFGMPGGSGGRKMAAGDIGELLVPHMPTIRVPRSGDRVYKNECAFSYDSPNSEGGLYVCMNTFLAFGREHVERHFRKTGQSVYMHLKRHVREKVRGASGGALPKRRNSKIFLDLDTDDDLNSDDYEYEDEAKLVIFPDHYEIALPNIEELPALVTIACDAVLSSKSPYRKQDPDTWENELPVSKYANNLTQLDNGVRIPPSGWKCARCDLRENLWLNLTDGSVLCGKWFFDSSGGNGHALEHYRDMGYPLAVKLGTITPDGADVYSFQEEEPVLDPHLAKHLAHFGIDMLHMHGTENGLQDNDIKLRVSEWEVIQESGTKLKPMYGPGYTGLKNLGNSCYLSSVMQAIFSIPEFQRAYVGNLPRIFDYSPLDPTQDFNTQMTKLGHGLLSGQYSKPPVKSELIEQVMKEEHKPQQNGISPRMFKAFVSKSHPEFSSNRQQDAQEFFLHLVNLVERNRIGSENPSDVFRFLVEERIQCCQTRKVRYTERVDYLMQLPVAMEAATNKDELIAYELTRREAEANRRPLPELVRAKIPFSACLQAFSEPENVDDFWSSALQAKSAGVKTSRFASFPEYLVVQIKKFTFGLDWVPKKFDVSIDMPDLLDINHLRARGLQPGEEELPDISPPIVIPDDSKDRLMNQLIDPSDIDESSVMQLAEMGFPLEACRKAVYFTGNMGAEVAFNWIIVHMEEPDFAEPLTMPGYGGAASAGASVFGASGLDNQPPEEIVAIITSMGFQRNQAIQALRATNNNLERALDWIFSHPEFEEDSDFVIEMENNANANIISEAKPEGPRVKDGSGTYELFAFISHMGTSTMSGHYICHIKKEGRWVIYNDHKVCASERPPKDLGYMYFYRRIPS

Flag-USP14 = Flag-USP14 (UniProt P54578); assay: as above
Flag-USP2 = biological target: T2, Flag-USP2 (UniProt O75604); assay: as above
T2 sequence: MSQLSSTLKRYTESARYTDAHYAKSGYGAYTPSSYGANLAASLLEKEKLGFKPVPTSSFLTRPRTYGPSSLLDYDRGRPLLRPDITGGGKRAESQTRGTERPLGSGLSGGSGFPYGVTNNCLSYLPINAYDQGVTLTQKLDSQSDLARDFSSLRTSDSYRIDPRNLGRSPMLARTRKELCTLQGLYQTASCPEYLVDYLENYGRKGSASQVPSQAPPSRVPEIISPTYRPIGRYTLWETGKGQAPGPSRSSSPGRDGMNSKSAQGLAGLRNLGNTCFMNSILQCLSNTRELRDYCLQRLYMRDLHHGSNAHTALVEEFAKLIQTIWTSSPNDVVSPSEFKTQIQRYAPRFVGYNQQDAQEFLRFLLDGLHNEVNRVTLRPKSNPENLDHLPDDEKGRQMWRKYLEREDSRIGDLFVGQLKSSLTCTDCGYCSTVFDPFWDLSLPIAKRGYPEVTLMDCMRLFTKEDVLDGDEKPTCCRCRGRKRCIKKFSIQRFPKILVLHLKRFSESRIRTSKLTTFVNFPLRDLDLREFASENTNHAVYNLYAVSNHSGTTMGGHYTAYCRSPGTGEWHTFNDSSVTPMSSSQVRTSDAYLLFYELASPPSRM

Flag-USP4 = biological target: T3, Flag-USP4 (UniProt Q13107); assay: as above
T3 sequence: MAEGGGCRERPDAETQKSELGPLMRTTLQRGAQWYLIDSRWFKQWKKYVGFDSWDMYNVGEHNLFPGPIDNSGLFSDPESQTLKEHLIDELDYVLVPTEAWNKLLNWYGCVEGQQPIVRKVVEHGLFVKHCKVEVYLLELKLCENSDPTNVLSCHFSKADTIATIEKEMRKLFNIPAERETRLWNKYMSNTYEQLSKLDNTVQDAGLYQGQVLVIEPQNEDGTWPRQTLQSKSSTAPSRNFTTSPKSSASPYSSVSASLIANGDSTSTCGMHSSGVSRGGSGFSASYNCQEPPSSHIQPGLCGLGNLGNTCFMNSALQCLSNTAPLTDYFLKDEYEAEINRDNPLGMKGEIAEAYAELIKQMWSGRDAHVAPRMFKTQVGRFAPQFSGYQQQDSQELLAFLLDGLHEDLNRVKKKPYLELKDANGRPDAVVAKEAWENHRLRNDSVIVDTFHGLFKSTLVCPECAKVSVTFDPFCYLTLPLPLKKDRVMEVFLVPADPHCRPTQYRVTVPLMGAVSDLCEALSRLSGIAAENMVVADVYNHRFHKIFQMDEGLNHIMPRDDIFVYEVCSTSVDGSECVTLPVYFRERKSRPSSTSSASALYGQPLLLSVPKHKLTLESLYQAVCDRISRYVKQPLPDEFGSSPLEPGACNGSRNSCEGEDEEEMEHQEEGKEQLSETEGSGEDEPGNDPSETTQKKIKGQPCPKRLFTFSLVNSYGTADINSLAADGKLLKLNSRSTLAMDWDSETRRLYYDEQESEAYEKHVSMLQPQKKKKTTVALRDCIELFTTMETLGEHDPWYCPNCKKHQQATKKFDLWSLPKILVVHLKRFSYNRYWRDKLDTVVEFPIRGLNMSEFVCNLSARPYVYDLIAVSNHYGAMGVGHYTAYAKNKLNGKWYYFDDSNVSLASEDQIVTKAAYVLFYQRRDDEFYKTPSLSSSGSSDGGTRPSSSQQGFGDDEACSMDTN

Flag-USP5 = Flag-USP5 (UniProt P45974); assay: as above

binding (GST-tagged USP10 400–798): binds | binding [1]: binds | binding (Flag-USP13): no binding | binding (Flag-USP14): no binding | binding (Flag-USP2): no binding | binding (Flag-USP4): no binding | binding (Flag-USP5): no binding
B1: HA-HDAC7 (histone deacetylase 7) (enzyme, UniProt Q8WUI4 1-952)
chain: MDLRVGQRPPVEPPPEPTLLALQRPQRLHHHLFLAGLQQQRSVEPMRLSMDTPMPELQVGPQEQELRQLLHKDKSKRSAVASSVVKQKLAEVILKKQQAALERTVHPNSPGIPYRTLEPLETEGATRSMLSSFLPPVPSLPSDPPEHFPLRKTVSEPNLKLRYKPKKSLERRKNPLLRKESAPPSLRRRPAETLGDSSPSSSSTPASGCSSPNDSEHGPNPILGSEALLGQRLRLQETSVAPFALPTVSLLPAITLGLPAPARADSDRRTHPTLGPRGPILGSPHTPLFLPHGLEPEAGGTLPSRLQPILLLDPSGSHAPLLTVPGLGPLPFHFAQSLMTTERLSGSGLHWPLSRTRSEPLPPSATAPPPPGPMQPRLEQLKTHVQVIKRSAKPSEKPRLRQIPSAEDLETDGGGPGQVVDDGLEHRELGHGQPEARGPAPLQQHPQVLLWEQQRLAGRLPRGSTGDTVLLPLAQGGHRPLSRAQSSPAAPASLSAPEPASQARVLSSSETPARTLPFTTGLIYDSVMLKHQCSCGDNSRHPEHAGRIQSIWSRLQERGLRSQCECLRGRKASLEELQSVHSERHVLLYGTNPLSRLKLDNGKLAGLLAQRMFVMLPCGGVGVDTDTIWNELHSSNAARWAAGSVTDLAFKVASRELKNGFAVVRPPGHHADHSTAMGFCFFNSVAIACRQLQQQSKASKILIVDWDVHHGNGTQQTFYQDPSVLYISLHRHDDGNFFPGSGAVDEVGAGSGEGFNVNVAWAGGLDPPMGDPEYLAAFRIVVMPIAREFSPDLVLVSAGFDAAEGHPAPLGGYHVSAKCFGYMTQQLMNLAGGAVVLALEGGHDLTAICDASEACVAALLGNRVDPLSEEGWKQKPNLNAIRSLEAVIRVHSKYWGCMQRLASCPDSWVPRVPGADKEEVEAVTALASLSVGILAEDRPSEQLVEEEEPMNL
